For two compounds, concentration in plasma results are on record in EPA's CvTdb concentration-time database.

This data set deals with Rat. As to the kind of experiment: concentration in plasma after dosing. Particulars: iv, Female.

The structures appear in SMILES notation. Further values from the same series stand in other lists.

Regarding `CC/C(=C(\c1ccccc1)c1ccc(OCCN(C)C)cc1)c1ccccc1` [Tamoxifen, free base], the concentration in plasma reads like this: (0.25 h, dosed: Tamoxifen citrate, 0.3 mg/kg, Sprague-Dawley) 13.7 ng/mL; (0.5 h, dosed: Tamoxifen citrate, 0.3 mg/kg, Sprague-Dawley) 20.1 ng/mL; (1 h, dosed: Tamoxifen citrate, 0.3 mg/kg, Sprague-Dawley) 8.88 ng/mL; (2 h, dosed: Tamoxifen citrate, 0.3 mg/kg, Sprague-Dawley) 6.89 ng/mL; (4 h, dosed: Tamoxifen citrate, 0.3 mg/kg, Sprague-Dawley) 4.04 ng/mL.
Where the note is “1 h, dosed: dichloroacetic acid, 60 mg/kg, Harlan Sprague-Dawley”, `O=C(O)C(Cl)Cl` [dichloroacetic acid] had a concentration in plasma of 10900 ng/mL.
